According to the RNAGym collection of RNA variant scans (doi:10.7554/elife.90254):
Read counts are not given, so values of variants with three or more changes are uncertain.

B1: OR4K15 (parent)
chain: GUUAACGGUCAUAGGCCAUGGAAACUAGGAGCACCAUUUCGCUGCCAGUGAAGAAAUGAACAAAGAAAAUCUGGGCCAGGCAGGCAUCAAAAGAAAUAGUCUUGCGCUCAACCAGAAAGUCUGUAAUCAUUUUAAGGGUA

Variants of: B1
Assay: self-cleavage, relative activity (ratio to wild type); higher = more cleavage; in vitro, sequencing; the parent is a self-cleaving ribozyme

Variant	self-cleavage
A67G A86G A92G A118G	0.89
A30G U102C U133C	1.29
A66G A90G A98G U108A	0
U12A A82G A90G A94G A126G U130C	0.1
C35U U43C A78U U108C U120C U132A U133C A140G	0
U37C U43C U70C A92G A118G A126C	0
U12C A94G U132C	1.86
A18U U43C A59G G73U A86G A118G	0.05
A24U A51U U122C	1.57
U39C A51G A54G A90G A92G U130A	0.44
A4G U12C A22G A36G A125U U131C	1.06
U2C A11C A47G A78G	0.33
U19C A55G A116G	1.05
A22G U43C U132C	0.86
A60G A78U U102C U132C	1.4
A13G A33G A60G A78G A82G	0.33
U39A A90G A110G A117G	0.25
U43C A54G U124C	0.79
A47G A55G A68G A91G A118U A135U	0.07
U49C A56G A60G A82G	0.12
U19C U39A A82U A114C A116G	0.01
A23G A52G A56G U87C A90G	0.32
U12C A36U A89G	1.04
U9C C17U C35U U37C A116U	0.37

Variant	self-cleavage
U72C U102C A110U	0.27
A66G A118G A126C	0.53
A52G A63G A125G	0.62
U43C A68U U103C A116G	0.26
U26A A68U A82G A116G	0.11
A13G A56G A59U A91G U100C A117U	0
U38C U57C U122A	1.42
U12C A54G A94G U139C	0.85
U12A U87G A96G A117G	1.15
U26C A68U U87A	1.79
A23G A33G U122C	1.15
A78G U122C U131C	0.16
U49C A55C U100A U122A	0.35
A5G U49C A60G A86G U100C	0.44
A68G A96U A114U A125G	0.02
A110G U131C A134C	0.05
A55U A66G A118G	0.73
C46U A52G U70C U132C	0.76
A68G A82G A118G	0.38
A30G A52G A114U	0.03
U2A U43C A54G A63G	1.65
A92U U100C A129C	1.94
U39A A82G A89G G137U	0.52
U49C U57C A126G	0.38

Variant	self-cleavage
A22G A60G C88U A96G	0.85
U38C A95G U102C A134G	1.61
G50A A59G A92G	1.72
C71A U120A A125G	0.14
A24G U43C U70C	1.51
A5G C25A U38C U102C	1.25
C6U G65U A89G U132C	0.63
A24G A69G A135G U139C	1.73
A52U A67G A126G	1.21
G7A A67G U100C	2.24
C17A A30U U122A	0.84
A5G A114U U133C	0.21
U38C A52G U87G	0.58
A55G U108C A117G U127C	0
A47G U49C U87C A95G U122C	0.07
A89G U97C U124A	0.8
A22U A24C A78U	0.23
A5G A47G A64G	1.16
A22G U38A A51G A129G	0.89
A22G U49A A68G U120A	0.71
A27G A116G G123U	1.5
U43C A56G A78U A91G A95G U127A	0.32
U39A A52G A56G	0.71
C46U A47U U57C U72A U133C	0.14

Variant	self-cleavage
U9C A66G U108A	0.04
U26A A33G U43A A54G A111G A129G	0
A51G A66G U108C	0.01
U2C A69U U87C	1.8
A30G C40A A62U A69G U100C A116U	0.26
A22G A24U A135U	0.71
A96G U102C A129G	1.86
U9A A78U A91G U120C U122A	0.05
U38C A52G U70G A78C	0.37
G44C A54G A60G A118G	0.44
A27G A60G A68U U102C	1.37
A54G A56G A62G G73A U108C	0.02
A33G A56G U57G A69G U72C	0.21
A4G A11G A82G U108G A140G	0.03
A4G A22G U39C U102C	0.96
A4G C25A A111G	0.11
G53A A62G A95U A98C U122C G138U	1.64
G44A A86G U97C	1.78
U2G C77A A114G	0.4
U12C G14A U87A A134G	0.9
A5G A11U A24G A126G	0.87
U2C G14A C40U A67G A96G	0.97
U43C A51G A111G	0.04
G41A U49C U87C	0.32

Variant	self-cleavage
U49C A90G A92G A95G U97C	0.48
C34U A51G A78G A91G A114G U122G	0.02
U87C A96G U100C	2.83
U19C U39C A78U	0.48
U38C U57C U87A	0.44
A47U U72A A110G A111G	0.01
C45A A52G A68G U108C U122C A129G	0
U26C U37C G79A	0.1
A33U A51U A114U	0.03
A54G A60G U108C A110U	0.02
U19C A30G U103C U130C	0.35
A51G A64G A114U	0
C6U A66G A78G	0.32
U43G A62G U103C A110U A114U A117U U127A	0
A23G U39C A54U A60G C77U U133C	0.97
U3C A63G A95G	1.9
G79C U102C A140G	0.05
U26A U124C U130C	0.45
U19A A30G A114U	0.04
A66G A91G A96U	0.68
A59G A96G A114U	0.07
U38C A67G A95G U100A	0.71
U2C A56G A64G	0.81
A52G A78G C113G U127A	0.04

Variant	self-cleavage
A66G U122A A140G	1.93
A52G A55G G137C	1.16
A11G G14A U102C U130C	0.82
U3A U12C G53A A56G A82G	0.99
A33G A116G A140G	0.39
A13G U108C A129G	0.01
A51G A54G A66G U122C A126G	1.11
U2C A23G A56G A62G	1.03
A66G A90G A94G	1.5
U70C A90G U127C	0.26
U100C U127C U131C	2.58
A22G A59U U131C	1.09
A111U C113U C121A	0.06
A68G A78C A117G	0.21
A33G U57C A135G	0.71
A30C G50A A69U	0.94
A54G U87C U102C A118G A134G G136A	1.74
A27G G31A A51G	0.89
A22G A54U A56G A64G A82G A95U A118G	0.04
G83U U102C A111G A126G	0
G41A A64G A98G	0.34
C35A A78G A135G	0.24
A33U U122C U132A	0.77
U38C A86G A96U	2.04

Variant	self-cleavage
C16G A18C A36U U108C	0.05
U37C A54G A68U G73U	0.03
A4G G48A A129G	1.01
U2C C101A C112U	0.02
A64G A66G U108C A110G A118C	0
A91G A116G U127A	0.3
A23G A68G U72A	0.47
A23G A62G A68G	0.64
U38C A66G A94G U103C U131C	0.83
G14A U19C U57C A92G	0.46
A23G A56G A67G	1.03
U26C U43A G74A A94G A96U	0.1
A52G A66C U87A	1.09
A13G A52G A78U A91G A116G U130C	0.04
G7A U9C A11C A68C U102A	1.17
A30G U37C A117G	1.57
A59U A78G A89G A110U	0.39
A54G A60G A62U A90G A110C	0.08
A33C U43C A51G A129U	1.37
A11G U39C A64U	0.98
A24G A47G U108A	0.06
U72A A91U A94U A110G	0.07
A55G U108A U122C	0.01
